Numbering of substitutions follows the chain as printed.

The target of test [1] is T1, human PSMA on cells (Cho-hPSMA, CHO-K1 cells overexpressing full-length human PSMA) (human, UniProt Q04609).
T1 construct: whole, on cells; also called cell surface PSMA; PSMA-expressing Lncap cells
Put plainly: flow cytometry, Cho-hPSMA; antibody at 0.8 nM. The protocol:
(§1) Experiment 1: Cho-hPSMA was cultured in F12 medium with 10% FBS. The medium to which cells were inoculated was incubated in a 37° C., 5% CO₂ incubator for 2 days, and cells were added to a cell plate at 1×10⁵ cells/well and washed by centrifugation. Antibodies were serially diluted, and the antibody solutions were added to the cell plate at 100 μL/well. The plate was incubated at 4° C. for 1 h and then washed. An AF488-Goat Anti-human IgG Fc fluorescent secondary antibody dilution (1:400) was added to the cell plate at 100 μL/well, and the plate was incubated at 4° C. for 1 h and then washed. PBS was added to the cell plate at 100 μL/well before plate reading.
(§2) Experiment 3: The binding activity of bispecific antibodies was measured using the method of experiment 1.
In general terms: In flow cytometry, cells or beads pass a laser one at a time.

In test [2] the target is T1, human PSMA on cells (Cho-hPSMA, CHO-K1 …). Briefly: flow cytometry, Cho-hPSMA; antibody at 20 nM. How it is done: as §1, §2
Test [3] shares this target. Put plainly: cell-based or functional assay.
Test [4] has the same target. Briefly: flow cytometry, Cho-hPSMA; antibody at 4 nM. The protocol:
as §1, §2

Test [5] shares this target. Briefly: flow cytometry, Cho-hPSMA; antibody at 100 nM. The protocol:
as §1, §2

Test [6] has the same target. Briefly: cell ELISA (OD450), Cho-hPSMA cells. The protocol: Experiment 2: Cells were cultured and inoculated onto a cell plate using the same method as in Experiment 1. The antibodies were serially diluted, and the antibody solutions were added to the cell plate at 100 μL/well. The plate was incubated at 4° C. for 1 h and then washed. An HRP-Goat Anti-human IgG (H+L) secondary antibody dilution (1:8000) was added to the cell plate at 100 μL/well, and the plate was incubated at 4° C. for 1 h and then washed by centrifugation. After color development with TMB, the reaction was stopped with 0.1 M sulfuric acid, and OD450 values were measured.

Test [7] concerns the target T2, human PSMA antigen (R&D SYSTEM, 4234-ZN-010) (human, UniProt Q04609).
T2 construct: bought antigen
Put plainly: ELISA, plate-bound PSMA antigen. How it is done:
To test the ability of the PSMA-targeting humanized antibodies of the present disclosure to bind to PSMA antigen, the ELISA method was used in this test example to measure the binding of the PSMA-targeting humanized antibodies to human PSMA antigen (purchased from R&D SYSTEM, 4234-ZN-010). The specific steps are as follows: A 96-well plate was coated with PSMA antigen at 1 μg/well and placed at 4° C. overnight. After the supernatant was discarded, the plate was blocked with 5% skim milk for 2 h. Different concentrations of humanized antibodies were prepared using 1% BSA. The initial concentration was 10 μg/mL and was serially diluted 4-fold to obtain 12 concentrations. After the blocked 96-well plate was washed twice, the […] was added, and the plate was incubated at 4° C. for 1 h. After four washes, the plate was incubated with Strepidation-HRP secondary antibody (1:10,000) at 4° C. for 1 h. After color development with TMB, the reaction was stopped with 0.1 M sulfuric acid.

B1: 19-F4 (bispecific antibody)
heavy: not shown
light: DIQMTQSPSSLSASVGDRVTITCRASQDISKYLNWYQQKPGKAPKLLIYYTSSLHSGVPSRFSGSGSGTDYTLTISSLQPEDFATYYCQQGNRLPRTFGGGTKVEIKRTVAAPSVFIFPPSDEQLKSGTASVVCLLNNFYPREAKVQWKVDNALQSGNSQESVTEQDSKDSTYSLSSTLTLSKADYEKHKVYACEVTHQGLSSPVTKSFNRGEC
notes: PSMA x CD3, Format 4
In the case of B1, the fluorescence intensity in test [1] was determined as 6910; in test [2], 29300; in test [4], 20400; in test [5], 30800. In addition, the “cytotoxic activity against Lncap, EC50” value in test [3] came to 0.0109 nM. Moreover, the “cytotoxic activity against Lncap, Maximum lysis rate %” value in test [3] came out at 64.9%.

B2: hu19H1L1 (antibody, human IgG1, kappa)
heavy: EVQLVESGGGLVQPGGSLRLSCAASGFTFSDYYMAWVRQAPGKGLEWVANINYDGSSTYYLDSLKSRFTISRDNAKNSLYLQMNSLRAEDTAVYYCARGGDYWDAMDYWGQGTTVTVSS[no letters for human IgG1 constant region]
light: B1 light with Y71F
On to B2, for which the EC50 (as a rule, the concentration at which the effect is half-maximal) in test [6] was 0.0945 µg/mL.

B3: hu19H2L1 (antibody, human IgG1, kappa)
heavy: B2 heavy with Q3K
light: B1 light with Y71F
In turn, B3 returned an EC50 in test [6] of 0.0919 µg/mL. This EC50 and that of the molecule before are within 1.5-fold of each other.

B4: hu19H2L2 (antibody, human IgG1, kappa)
heavy: B2 heavy with Q3K
light: B1 light
Consider B4, for which the concentration giving a half-maximal response (EC50) in test [6] was 0.0889 µg/mL; in test [7], 0.0837 µg/mL. In addition, the “Top (maximum absorbance)” value in test [7] amounted to 1.58 absorbance.

B5: hu19H1L2 (antibody, human IgG1, kappa)
heavy: B2 heavy
light: B1 light
Molecule B5 registered an EC50 in test [6] of 0.112 µg/mL.

The values are drawn from patent publication US20250043022A1 (JIANGSU HENGRUI PHARMACEUTICALS, published 2025).
